Results reported in article PMC2171497 (The Journal of Cell Biology, 2005).

Biological target: preassembled microtubules (MTs) of bovine brain tubulin (bovine, UniProt Q6B856)
Assay: co-sedimentation

- Kd: 1240 ± 300 nM
B1: τ (tau) from bovine brain (natural protein)
chain: not shown
